Each structure is given as a SMILES string. In all, about 3,200 compounds went through this assay and about 110 (3.4%) showed an effect of 50% or more. This is one part of the list.

45 compounds from publication PMC11995724, “Antibiotic target discovery by integrated phenotypic and activity-based profiling of electrophilic fragments” (Cell chemical biology, 2025) can be followed below.

For this test, the system named is T1, V. cholerae SAD30.
T1 construct: SAD30
Also noted: species or system S. aureus MSSA476 (TSB) or V. cholerae SAD30 (LB); 384-well bacterial growth screen at 25 uM, OD600 relative to DMSO control. Conditions: relative growth, OD600, LB; 25 µM; inhibitor.
As to `CC(Cl)C(=O)Nc1cc(Cl)ccc1Cl` (stereo not drawn) [6-A15, 2-chloro-N-(2,5-dichlorophenyl)propanamide], the “% of control remaining” value is 87.5154%. Consider `CC(Cl)C(=O)N1CCN(c2nc3ccccc3o2)C(C)C1` (stereo not drawn) [7-K22, 1-[4-(1,3-benzoxazol-2-yl)-3-methylpiperazin-1-yl]-2-chloropropan-1-one], for which the “% of control remaining” value came out at 84.7183%.

Regarding `O=C(CCl)NC1COc2ncccc21` (stereo not drawn) [7-F10, 2-chloro-N-{2H,3H-furo[2,3-b]pyridin-3-yl}acetamide], the “% of control remaining” value turned out to be 83.7932%. With `CC(Cl)C(=O)N1CCN(Cc2nnnn2-c2ccccc2)CC1` (stereo not drawn) [7-N05, 2-chloro-1-{4-[(1-phenyl-1H-1,2,3,4-tetrazol-5-yl)methyl]piperazin-1-yl}propan-1-one] the figure was 83.5288%. The figure for `CCOc1ccc(S(=O)(=O)N2CCN(C(=O)CCl)CC2)cc1` [4-P15, 2-chloro-1-[4-(4-ethoxybenzenesulfonyl)piperazin-1-yl]ethan-1-one] is 118.352%. The figure for `CC(Cl)C(=O)N1CCCN(c2ccc(-c3ccccc3)nn2)CC1` (stereo not drawn) [7-L15, 2-chloro-1-[4-(6-phenylpyridazin-3-yl)-1,4-diazepan-1-yl]propan-1-one] is 80.3568%; for `C=CC(=O)Nc1ccccc1-c1nnnn1C` [1-M05, N-[2-(1-methyl-1H-1,2,3,4-tetrazol-5-yl)phenyl]prop-2-enamide] it is 92.8251%; for `O=C(CCl)Cc1ccc(F)cc1Cl` [10-E19, 1-chloro-3-(2-chloro-4-fluorophenyl)propan-2-one] it is 21.0403%.

As for `N#CC(=Cc1c(C2CC2)nc2sccn12)C(=O)NC1CCCCC1` [9-H18, 2-cyano-N-cyclohexyl-3-{6-cyclopropylimidazo[2,1-b][1,3]thiazol-5-yl}prop-2-enamide], the “% of control remaining” value was determined as 64.7859%. With `CC(Cl)C(=O)N(C)Cc1ccccc1` (stereo not drawn) [6-I13, N-benzyl-2-chloro-N-methylpropanamide] the figure was 78.87%; with `C=CC(=O)NC(Cn1cnc2ccccc21)c1ccc(F)cc1` (stereo not drawn) [2-C11, N-[2-(1H-1,3-benzodiazol-1-yl)-1-(4-fluorophenyl)ethyl]prop-2-enamide], 87.108%; with `CC(Cl)C(=O)NC1COCc2ccccc21` (stereo not drawn) [6-B05, 2-chloro-N-(3,4-dihydro-1H-2-benzopyran-4-yl)propanamide], 97.9809%. With `CC(Cl)C(=O)N(CCC#N)c1ccccc1` (stereo not drawn) [6-M18, 2-chloro-N-(2-cyanoethyl)-N-phenylpropanamide] the figure was 87.9704%; with `C=CC(=O)N1CCC(C(=O)NCC2COC3(CCCC3)O2)CC1` (stereo not drawn) [3-A16, N-({1,4-dioxaspiro[4.4]nonan-2-yl}methyl)-1-(prop-2-enoyl)piperidine-4-carboxamide], 114.144%; with `COc1cc(OC)c(C(=O)CCl)c(OC)c1` [10-L04, 2-chloro-1-(2,4,6-trimethoxyphenyl)ethan-1-one], 98.344%. The figure for `C=CC(=O)N1CCC(C(=O)N2Cc3ccccc3C[C@H]2C(N)=O)CC1` [3-C19, (3S)-2-[1-(prop-2-enoyl)piperidine-4-carbonyl]-1,2,3,4-tetrahydroisoquinoline-3-carboxamide] is 110.263%; for `C=CC(=O)NCCC(=O)N1CCc2ncncc2C1` [2-C04, N-(3-oxo-3-{5H,6H,7H,8H-pyrido[4,3-d]pyrimidin-6-yl}propyl)prop-2-enamide] it is 109.804%. For the compound `CC1CC(c2ccccc2F)N(C(=O)C(C)Cl)C1` (stereo not drawn) [6-H18, 2-chloro-1-[2-(2-fluorophenyl)-4-methylpyrrolidin-1-yl]propan-1-one], the “% of control remaining” value was found to be 81.6002%. With `C=CC(=O)NCc1noc2c1CCCC2` [3-B20, N-[(4,5,6,7-tetrahydro-1,2-benzoxazol-3-yl)methyl]prop-2-enamide] the figure was 112.38%; with `C=CC(=O)N1CCC(C(=O)N2CCn3ccnc32)CC1` [2-I04, 1-(4-{1H,2H,3H-[1,3]diazolo[1,2-a]imidazole-1-carbonyl}piperidin-1-yl)prop-2-en-1-one], 97.6069%. With `C=CC(=O)Nc1ccc(F)c(C(=O)CC)c1` [1-I22, N-(4-fluoro-3-propanoylphenyl)prop-2-enamide] the figure was 101.495%; with `CC(NC(=O)CCl)C(c1ccccc1Cl)n1cccn1` (stereo not drawn) [7-D20, 2-chloro-N-[1-(2-chlorophenyl)-1-(1H-pyrazol-1-yl)propan-2-yl]acetamide], 71.5017%.

For `CSc1ccccc1CC(C)NC(=O)CCl` (stereo not drawn) [7-D14, 2-chloro-N-{1-[2-(methylsulfanyl)phenyl]propan-2-yl}acetamide], the “% of control remaining” value is listed as 77.1849%.

With `CS(=O)(=O)NCCc1ccc(C(=O)CCl)cc1` [10-D06, N-{2-[4-(2-chloroacetyl)phenyl]ethyl}methanesulfonamide], the “% of control remaining” value is listed as 99.5909%. For the compound `Cc1ccc(NC(=O)C(C)Cl)cc1S(=O)(=O)N1CCOCC1` (stereo not drawn) [5-D22, 2-chloro-N-[4-methyl-3-(morpholine-4-sulfonyl)phenyl]propanamide], the “% of control remaining” value turned out to be 107.429%. With `Cc1csc(-n2c(C)cc(C(=O)CCl)c2C)n1` [10-G05, 2-chloro-1-[2,5-dimethyl-1-(4-methyl-1,3-thiazol-2-yl)-1H-pyrrol-3-yl]ethan-1-one] the figure was 103.955%. As to `Cc1ccccc1N1C(=O)CSC1=C(C#N)C(=O)N1CCCCC1` [8-B12, 2-[3-(2-methylphenyl)-4-oxo-1,3-thiazolidin-2-ylidene]-3-oxo-3-(piperidin-1-yl)propanenitrile], the “% of control remaining” value is listed as 78.1101%.

Take `CCN(Cc1ccc(OC)c(F)c1)C(=O)CCl` [5-D09, 2-chloro-N-ethyl-N-[(3-fluoro-4-methoxyphenyl)methyl]acetamide]: the “% of control remaining” value was found to be 96.501%. The figure for `C=CC(=O)N1CCc2c(nnn2CCOC)C1` [1-N05, 1-[1-(2-methoxyethyl)-1H,4H,5H,6H,7H-[1,2,3]triazolo[4,5-c]pyridin-5-yl]prop-2-en-1-one] is 93.5725%; for `Cc1n[nH]c(C)c1C=C(C#N)C(=O)Nc1ccc(SC(F)F)cc1` [8-E08, 2-cyano-N-{4-[(difluoromethyl)sulfanyl]phenyl}-3-(3,5-dimethyl-1H-pyrazol-4-yl)prop-2-enamide] it is 75.2549%. The figure for `Cc1nn(Cc2ccccc2)c(C)c1CNC(=O)CCl` [4-O11, N-[(1-benzyl-3,5-dimethyl-1H-pyrazol-4-yl)methyl]-2-chloroacetamide] is 102.998%; for `CC(Cl)C(=O)N[C@H]1CN(Cc2ccccc2)C[C@@H]1c1ccccc1` (mixture of isomers) [7-N09, rac-N-[(3R,4S)-1-benzyl-4-phenylpyrrolidin-3-yl]-2-chloropropanamide] it is 58.6816%. With `Cc1nc2ccccc2n(CCCNC(=O)C(C)Cl)c1=O` (stereo not drawn) [7-O21, 2-chloro-N-[3-(3-methyl-2-oxo-1,2-dihydroquinoxalin-1-yl)propyl]propanamide] the figure was 83.7932%; with `CC(Cl)C(=O)NCCCN1CCc2ccccc2C1` (stereo not drawn) [7-M11, 2-chloro-N-[3-(1,2,3,4-tetrahydroisoquinolin-2-yl)propyl]propanamide], 76.9205%.

Regarding `N#CC(=Cc1ccc(O)cc1)C(=O)Nc1cc(Cl)ccc1Cl` [9-F03, 2-cyano-N-(2,5-dichlorophenyl)-3-(4-hydroxyphenyl)prop-2-enamide], the “% of control remaining” value is listed as 117.947%. Consider `CC(=O)c1cccc(NC(=O)C(C)Cl)c1` (stereo not drawn) [6-K22, N-(3-acetylphenyl)-2-chloropropanamide], for which the “% of control remaining” value is listed as 100.863%. With `CC(NC(=O)CCl)c1nnc(-c2ccccc2F)s1` (stereo not drawn) [7-L21, 2-chloro-N-{1-[5-(2-fluorophenyl)-1,3,4-thiadiazol-2-yl]ethyl}acetamide] the figure was 86.7008%. The figure for `Nc1c(C(=O)CCl)c(=O)[nH]c(=O)n1Cc1ccccc1` [10-J18, 6-amino-1-benzyl-5-(2-chloroacetyl)-1,2,3,4-tetrahydropyrimidine-2,4-dione] is 97.2531%; for `CCOC(=O)c1c(C)[nH]c(C)c1C(=O)CCl` [10-C10, ethyl 4-(2-chloroacetyl)-2,5-dimethyl-1H-pyrrole-3-carboxylate] it is 97.8765%; for `O=C(CCl)NCC1(c2ccccc2)CCOCC1` [6-I07, 2-chloro-N-[(4-phenyloxan-4-yl)methyl]acetamide] it is 91.7623%. Turning to `C=CC(=O)Nc1nn(C2CCCC2)c(C)c1Cl` [1-O06, N-(4-chloro-1-cyclopentyl-5-methyl-1H-pyrazol-3-yl)prop-2-enamide], the “% of control remaining” value came out at 86.6966%. The figure for `C=CC(=O)NCCc1c(C)oc2ccccc12` [1-N07, N-[2-(2-methyl-1-benzofuran-3-yl)ethyl]prop-2-enamide] is 82.6607%; for `CC(Cl)C(=O)NC(C)c1nc(Cc2ccccc2)no1` (stereo not drawn) [7-B19, N-[1-(3-benzyl-1,2,4-oxadiazol-5-yl)ethyl]-2-chloropropanamide] it is 82.868%. The figure for `C=CC(=O)N(Cc1ccc(OC)cc1)[C@@H]1CCCC[C@H]1O` [2-M05, N-[(1R,2R)-2-hydroxycyclohexyl]-N-[(4-methoxyphenyl)methyl]prop-2-enamide] is 86.0272%; for `CC(Cl)C(=O)NCc1noc2ccccc12` (stereo not drawn) [7-I14, N-[(1,2-benzoxazol-3-yl)methyl]-2-chloropropanamide] it is 66.2151%.
